Assay results taken from the supplement of paper PMC3334620.
Over roughly 33,000 sequences, “E-score (-0.5 to 0.5)” has its median near -0.016; the highest 2% begin near 0.31. Some of the results follow.

molecular target: Cst6 (UniProt P40535); assay: PBM E-score (8-mer binding enrichment) (E-score (-0.5 to 0.5)); higher = stronger / more preferred TF binding; most listed sequences are background and not binding sites; settings: protein concentration: 200 nM; construct: GST-DNA-binding domain
Summary of the method: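 Using PURExpress in vitro transcription/translation, GST-tagged yeast transcription factors were made in full-length or DNA-binding-domain form. These were applied at about 100-200 nM to double-stranded universal all-10-mer Agilent arrays, and bound protein was detected with fluorescent anti-GST. Scans were normalised with masliner before the Universal PBM Analysis Suite assigned E-scores to ungapped eight-base words pooled with their reverse complements.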

Sequence	PBM E-score
CCTCAAAC	-0.11
CCACCCCG	-0.12
ATTCTAAG	0.118
AATGTCTC	-0.0571
AACAATGA	0.269
CCCTCCCC	-0.128
GAAGAGGA	-0.285
ACTCTTCT	-0.112
CTAGCTCC	-0.168
AGGTCCGA	-0.0447
AGGCTGAC	0.021
CCATAATC	0.0864
ATGCCGTG	0.283
AAGCTAGC	-0.185
ATGAACAG	-0.0447
CAGGCGTC	-0.00038
ACTGACAG	-0.00331
AGAGGAAC	-0.167
CTCCTCCA	-0.0278
ATGAATAG	0.0516
AGCGTTAG	-0.0124
CCCTTAGG	-0.236
GTGAAAAA	0.166
CAATCGAC	-0.00342
ACGAGAGT	-0.0164

Sequence	PBM E-score
GTTATTTA	0.16
AGCTTAGC	-0.128
AAAGCTGA	0.0262
AGGTTTCC	-0.146
GCCCGTAA	-0.0223
AGATCTAA	-0.00708
AGAGTGCG	0.0193
GAAGTTGA	0.0113
AAGGGTAT	0.0744
CGACCGAA	-0.118
CAGAGAAG	-0.0752
GGAATAGA	0.141
CCATAGAG	-0.189
GCCGTTCA	0.119
GAGACCTA	-0.159
ACCACAAT	-0.0406
GAACGCGC	0.042
GCGACGAC	-0.217
AGAGTGGA	-0.102
CACCGATC	-0.0918
CAATGCCC	-0.136
AGGTGAAA	0.174
ACTCACAA	-0.0198
AATTCATG	0.232
CCACAAGG	-0.141

Sequence	PBM E-score
GCGGATCC	-0.244
CCACTAGC	-0.0858
ACACAGAT	0.0983
CCCAGCGA	-0.148
GGCCAACA	-0.132
AGACGGTG	-0.121
CAGCAATG	-0.0536
CAAGACAG	0.00208
ACGAGTTC	0.0943
CTACCTTC	0.00911
AACGCCAC	0.0249
CATGATTA	0.3
CAAAGACG	-0.00769
AAAGCAGC	-0.00842
CTCATCGA	-0.0055
ACTACCCG	-0.157
GCCGCCGC	0.205
ATGCCGAC	0.00357
ATGGGGAC	-0.253
ACCTCTCA	-0.0889
CTACTAAC	0.104
ACAAACTG	-0.133
AGGCGAGG	-0.149
CGGGAAGA	0.0622
ATGTTATC	0.0807

Sequence	PBM E-score
AGTGCTGG	-0.12
GCCAGACA	-0.136
GGTGTCAC	0.137
CTACTGAC	-0.0156
ATACCGGG	-0.224
AGAACTAT	0.203
ACCCGAGC	-0.164
TGTATCAA	0.196
ATTCTCTG	-0.0797
GAGCTATA	-0.0375
AGTTATCA	0.0276
CGCCTCCG	-0.189
AGACACCA	-0.0187
ACCCCGCA	-0.112
CCTGTTGA	-0.0446
AGAGTACA	-0.177
AGTTGTAT	0.188
ATTACGGG	0.00617
GAGCGTTA	0.0716
ATTGGCAC	-0.0501
GATACGGA	0.111
CTACGGAC	-0.227
TAAGATCA	0.165
GCAAGCCA	-0.273
GAATATGC	0.0565

Sequence	PBM E-score
AGATCGCT	-0.198
ATTCAAAT	0.172
CTCGCTAA	0.0589
AGGCAAAT	0.164
AAAAACAG	0.034
TCGACCCA	-0.0691
ATGCATGC	0.0469
AACGGAAC	0.0866
AGCAATAA	0.0413
GACTTGCA	0.0878
GCAGATAA	-0.103
AATTATGA	0.359
CCAAGTCG	-0.214
CGCCTAAG	-0.248
ATCGTGCG	0.225
CGAACTGA	0.024
CGCCACTA	-0.0104
CGGAGACG	-0.0191
TCCACAGA	0.0321
GAACTCCA	0.0679
CGAAGTCC	-0.311
ATATACGC	0.0619
TGCCCGCA	-0.153
GCCGCTGA	-0.0198
AATGCTGA	0.0858

Sequence	PBM E-score
GACCCTCA	-0.384
GTATAAGA	0.0513
CCCACCTC	-0.263
GAGACAGC	-0.125
AGCTTACG	0.132
AACCTGTA	0.0426
GACCCCGC	-0.155
ACTATTTG	0.11
AGTGGACG	0.225
CCACCCTC	-0.00819
CCCAGGAA	-0.176
ATGCCGAA	0.0887
GAAGACGA	0.0435
ACGTTGCA	0.111
ATTCGAAT	0.095
CTTGGCTA	-0.0737
ACGTTCCA	-0.131
ACGCAATC	0.206
CCTGGACG	-0.309
AACTAGGT	-0.0629
AGCAATTA	0.0966
AACTGAGG	-0.0585
GGTGAACA	-0.212
AATGACTG	0.141
CGAAGCCA	-0.0138

Sequence	PBM E-score
AGGTACAA	0.00431
ATTCCGAC	-0.0105
AACCACAA	0.0619
GCGCCTTA	0.27
GTAACTAC	0.218
AAATCTCT	0.0922
CGACAGAC	-0.211
CGGAGGCA	0.0288
CGCACGTC	0.203
GAGCCGTA	0.296
GCAATTCA	0.11
CACCAATA	0.0154
AGACTAAT	-0.103
ACCAGATA	0.0754
CCCCACTC	-0.286
AGCTGGCG	-0.3
ACCTGCTC	0.014
CATGTAAC	0.014
TAGAGTGA	0.0294
CTTAGGCA	-0.178
ACCGTCAC	0.216
AAGAGGTA	-0.0826
GACATCTC	-0.147
CGTTGTAG	-0.0708
AACGCTTA	-0.0117

Sequence	PBM E-score
TATGCGAA	0.0373
CGCTATTA	0.0489
AGGTATCG	0.0019
CTGGGGTC	-0.164
CAAAGGAA	0.0384
CATTTGGG	-0.0143
AAGTCTAT	0.00477
AAACTGGC	-0.094
ATCAGAAC	-0.0336
AGGGGGTA	-0.392
AGCTGGCA	-0.0922
CCTTGCGA	0.00961
GGCACGTA	0.119
AGTCGGAG	-0.287
GCAACGGC	0.13
ATACGGGG	-0.107
CTTTCGAC	-0.0311
AGCCCTGG	-0.324
GGCCCTCA	-0.266
GCCACTAC	-0.117
ACACATTA	0.126
ACGCATAA	0.197
AATAGTAG	0.124
AAAGTACG	0.222
GTCATACA	0.317

Sequence	PBM E-score
GTTTGATA	0.0835
CGCAATTA	0.18
ACAAAGCT	-0.0124
GCCTTCAA	-0.0837
ATATCGCC	0.0585
AGTGCATG	0.0373
AACACACT	0.0793
CCTAGCGC	-0.12
CAACCGTC	-0.0729
ACTTTCAC	0.133
ATTATACC	0.115
ATATTGCA	0.0649
TAGCCAAA	-0.012
TGACCCAA	0.076
CTCTAGTC	-0.339
ATTACGTG	0.46
CGCTTACG	0.128
GGATCTAA	-0.0815
ACACTCCA	-0.0141
CTAACCCC	-0.359
GAGGGATA	-0.28
GGATCGTA	-0.0792
GTCGGCTA	-0.0184
CTATCAGC	0.0792
CCATTGAA	0.0753

Sequence	PBM E-score
ACACGTCA	0.481
ATTCCTCA	0.121
CCGAAACA	0.0863
CTTGACTA	-0.115
AGCTGGAA	-0.2
AGTCTTTA	0.0157
AGTATCAT	0.2
CTCGCGAC	-0.0397
CCAAGACA	0.0192
TACGGGCA	-0.128
ATAGATAG	0.0604
ACGCACAT	0.123
CTCATGAC	0.335
AGACGGCG	0.305
CCAAGCAG	-0.14
AGGCGTGG	-0.196
AACCAGTC	-0.163
AATCTGTG	0.0752
AACTAGCG	-0.027
ATGAGTGA	0.179
TCAACCCA	-0.0214
AGGTAAGC	-0.177
CAGAAGTA	0.174
CTCGGCTC	-0.144
CATGGGGC	-0.0736

Sequence	PBM E-score
GCAGCCAA	-0.0419
CACTGAGG	0.0321
CCAGAATC	0.00028
GCTCTAAC	-0.047
ATTCTGAC	0.181
ATGTGAAG	0.135
TGTAGTAA	0.14
AATTGAAA	0.288
CATCATTC	0.223
GATAATCA	0.131
ATCGCGAA	-0.0403
AAGGCGAT	0.123
CTGGGCGA	-0.216
CGAGTTGC	-0.0533
ATCGACCG	-0.102
GCCTCACA	0.0735
CGAAATCA	0.269
CGAGAAGA	0.00966
ACTGTTAT	0.17
AAGTAACT	0.204
ATCTGCAT	0.109
CCAGCCGG	-0.252
TCAGTGGA	-0.126
ACAAACGA	0.252
AGTGATAG	0.0241

Sequence	PBM E-score
TGCACGAA	0.131
TCAAAAAA	0.249
CGTTAACA	0.0902
CGGGAGTC	-0.292
ATAACAGG	0.171
AATAACGT	0.264
AACACTTA	0.118
CATGGATA	0.0149
GCGAAAAC	-0.043
ACAGTCAG	0.0634
ACAATTAA	0.319
CACCAACC	0.00459
CACACTGG	-0.336
AGAAGCGA	-0.0835
CAATCAGA	0.00832
CGTGTCGC	0.171
GAGCCATA	-0.0796
AAACCATA	0.0889
AAGAGCAC	0.0219
CCACGCGA	-0.182
AAGATGAG	-0.0416
GAGCTAGC	-0.118
CTCGCTAC	-0.279
GATAGTGA	0.226
CCAAGGGG	-0.0413

Sequence	PBM E-score
GGTAGAGA	-0.0187
AAATCGCG	0.00064
CAATACCA	0.145
TCTACTAA	0.188
TGCGCGAA	0.0786
TCCATCGA	0.00711
ATGGATCC	-0.149
GATTCGAC	0.00076
ATGGGGTA	0.0349
TCGGAAGA	-0.0183
GTACCAAA	0.123
GGGTTGTA	-0.143
CGAGGACG	-0.269
AACCTCAA	0.0495
CATATGCG	0.0237
GGCTCTTA	-0.132
GTCCGGTA	-0.153
ATTTACCG	0.196
CGTATTTC	0.174
AGTTATTC	-0.0663
ATACAGTG	0.00221
ACTTGGTA	0.0789
CTGGGGAC	-0.341
GGGGTACC	-0.352
AGTGGTTA	0.0401

Sequence	PBM E-score
AGGGTAGG	-0.213
CCATACGC	-0.0414
AAGCCTTA	-0.0547
GTCGTGCA	-0.0895
AAAGACTG	-0.116
GCGGCGAA	0.174
TAGTAGAA	0.0675
ATTGTAGA	0.141
GGGCTTAA	-0.175
CAACTGGC	-0.0581
CCTCCACC	-0.344
GAGATCGA	0.0615
GCTGACCC	-0.241
ACGATCAA	0.135
ACGGAGCA	0.0622
ACTTTACT	0.0846
CTAGTAGC	-0.13
CCAGCGGC	0.0699
GCCCAGAA	-0.282
